Measured values from the supplement of paper PMC9151546.
Repeats are few or missing, and single values can be far off.

How the values were obtained:
CHO-K1 [1] = assay: micronucleus frequency (% of nucleated events); higher = more micronuclei (genotoxic)
CHO-K1 [2] = assay: hypodiploid nuclei frequency (% of nucleated events); higher = more hypodiploid events (aneugenic)
Method: (§1)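 Flow-cytometric in vitro micronucleus assay (Litron MicroFlow) in CHO-K1 cells in 96-well plates, 19 concentrations (4.5-200 µM, n=1 per concentration). Without S9, cells were exposed for 24 h and sampled at 48 h. With Aroclor 1254-induced rat liver S9, cells were exposed for 3-4 h and sampled at 27-28 h. Read-outs are %MN and %hypodiploid nuclei relative to nucleated events, and relative survival as the nuclei-to-bead ratio versus the 1% DMSO vehicle control (x100).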

CHO-K1 [3] = assay: relative survival (nuclei to bead ratio vs DMSO control) (% of vehicle control); higher = more surviving cells
Method: as §1
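Throughout, for hypodiploid nuclei frequency (% of nucleated events): hypodiploid nuclei gated on a flow cytometer with 488 nm excitation after SYTOX Green staining, cultures at 37 °C, positive controls vinblastine without S9 and cyclophosphamide with S9.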
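Throughout, for micronucleus frequency (% of nucleated events): cells lysed with nuclei stained by SYTOX Green, then micronucleus-gated events counted against nucleated events by flow cytometry with 488 nm excitation.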
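Throughout, for relative survival (nuclei to bead ratio vs DMSO control): Lysed-cell nuclei stained with SYTOX Green and counted against counting beads by flow cytometry at 488 nm excitation, with vinblastine (no S9) and cyclophosphamide (plus S9) as positive controls.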

Nc1ccc(Cl)cc1 [4-Chloroaniline]
Conditions | hypodiploid nuclei frequency, CHO-K1 [2] [%] | micronucleus frequency, CHO-K1 [1] [%] | relative survival, CHO-K1 [3]
concentration: 4.48 (µM), S9 metabolic activation: with S9, exposure time: 3-4 hours | 0.2 | 0.8 | 129
concentration: 4.48 (µM), S9 metabolic activation: without S9, exposure time: 24 hours | 0.52 | 1.26 | 111
concentration: 5.6 (µM), S9 metabolic activation: with S9, exposure time: 3-4 hours | 0.32 | 1.38 | 106
concentration: 5.6 (µM), S9 metabolic activation: without S9, exposure time: 24 hours | 0.64 | 1.5 | 103
concentration: 7 (µM), S9 metabolic activation: with S9, exposure time: 3-4 hours | 0.16 | 1.36 | 130
concentration: 7 (µM), S9 metabolic activation: without S9, exposure time: 24 hours | 0.32 | 1.9 | 91.9
concentration: 8.75 (µM), S9 metabolic activation: with S9, exposure time: 3-4 hours | 0.22 | 1.02 | 106
concentration: 8.75 (µM), S9 metabolic activation: without S9, exposure time: 24 hours | 0.46 | 1.2 | 106
concentration: 10.9 (µM), S9 metabolic activation: with S9, exposure time: 3-4 hours | 0.22 | 1.68 | 112
concentration: 10.9 (µM), S9 metabolic activation: without S9, exposure time: 24 hours | 0.76 | 2.4 | 108
concentration: 13.7 (µM), S9 metabolic activation: with S9, exposure time: 3-4 hours | 0.14 | 0.94 | 103
concentration: 13.7 (µM), S9 metabolic activation: without S9, exposure time: 24 hours | 0.56 | 1.7 | 96.2
concentration: 17.1 (µM), S9 metabolic activation: with S9, exposure time: 3-4 hours | 0.2 | 1.52 | 119
concentration: 17.1 (µM), S9 metabolic activation: without S9, exposure time: 24 hours | 0.56 | 1.72 | 102
concentration: 21.4 (µM), S9 metabolic activation: with S9, exposure time: 3-4 hours | 0.14 | 1.02 | 96.3
concentration: 21.4 (µM), S9 metabolic activation: without S9, exposure time: 24 hours | 0.64 | 1.04 | 104
concentration: 26.7 (µM), S9 metabolic activation: with S9, exposure time: 3-4 hours | 0.18 | 0.72 | 116
concentration: 26.7 (µM), S9 metabolic activation: without S9, exposure time: 24 hours | 0.76 | 1.78 | 97.9
concentration: 33.4 (µM), S9 metabolic activation: with S9, exposure time: 3-4 hours | 0.28 | 0.94 | 102
concentration: 33.4 (µM), S9 metabolic activation: without S9, exposure time: 24 hours | 0.88 | 1.32 | 93.7
concentration: 41.7 (µM), S9 metabolic activation: with S9, exposure time: 3-4 hours | 0.32 | 1.14 | 113
concentration: 41.7 (µM), S9 metabolic activation: without S9, exposure time: 24 hours | 0.78 | 1.68 | 122
concentration: 52.2 (µM), S9 metabolic activation: with S9, exposure time: 3-4 hours | 0.34 | 1.18 | 108
concentration: 52.2 (µM), S9 metabolic activation: without S9, exposure time: 24 hours | 0.74 | 1.72 | 96.4
concentration: 65.2 (µM), S9 metabolic activation: with S9, exposure time: 3-4 hours | 0.3 | 1 | 120
concentration: 65.2 (µM), S9 metabolic activation: without S9, exposure time: 24 hours | 0.6 | 1.46 | 110
concentration: 81.5 (µM), S9 metabolic activation: with S9, exposure time: 3-4 hours | 0.2 | 0.88 | 125
concentration: 81.5 (µM), S9 metabolic activation: without S9, exposure time: 24 hours | 1.06 | 2.04 | 117
concentration: 102 (µM), S9 metabolic activation: with S9, exposure time: 3-4 hours | 0.24 | 1.08 | 123
concentration: 102 (µM), S9 metabolic activation: without S9, exposure time: 24 hours | 1.04 | 2.28 | 114
concentration: 127 (µM), S9 metabolic activation: with S9, exposure time: 3-4 hours | 0.28 | 1.2 | 116
concentration: 127 (µM), S9 metabolic activation: without S9, exposure time: 24 hours | 0.86 | 1.86 | 88.4
concentration: 159 (µM), S9 metabolic activation: with S9, exposure time: 3-4 hours | 0.26 | 1.32 | 122
concentration: 159 (µM), S9 metabolic activation: without S9, exposure time: 24 hours | 1.28 | 2.66 | 94.8
concentration: 199 (µM), S9 metabolic activation: with S9, exposure time: 3-4 hours | 0.18 | 1.14 | 120
concentration: 199 (µM), S9 metabolic activation: without S9, exposure time: 24 hours | 1.12 | 2.26 | 92.4

O=C(O)C(Cl)(Cl)Cl [Trichloroacetic acid]
Conditions | hypodiploid nuclei frequency, CHO-K1 [2] [%] | micronucleus frequency, CHO-K1 [1] [%] | relative survival, CHO-K1 [3]
concentration: 4.5 (µM), S9 metabolic activation: with S9, exposure time: 3-4 hours | 0.22 | 1.22 | 96.7
concentration: 4.5 (µM), S9 metabolic activation: without S9, exposure time: 24 hours | 0.9 | 2.02 | 120
concentration: 5.63 (µM), S9 metabolic activation: with S9, exposure time: 3-4 hours | 0.14 | 1 | 94.3
concentration: 5.63 (µM), S9 metabolic activation: without S9, exposure time: 24 hours | 0.62 | 1.34 | 122
concentration: 7.04 (µM), S9 metabolic activation: with S9, exposure time: 3-4 hours | 0.14 | 1.46 | 82
concentration: 7.04 (µM), S9 metabolic activation: without S9, exposure time: 24 hours | 0.72 | 1.46 | 136
concentration: 8.8 (µM), S9 metabolic activation: with S9, exposure time: 3-4 hours | 0.14 | 1.14 | 96.2
concentration: 8.8 (µM), S9 metabolic activation: without S9, exposure time: 24 hours | 0.54 | 1.46 | 107
concentration: 11 (µM), S9 metabolic activation: with S9, exposure time: 3-4 hours | 0.08 | 1.14 | 114
concentration: 11 (µM), S9 metabolic activation: without S9, exposure time: 24 hours | 0.64 | 1.58 | 141
concentration: 13.7 (µM), S9 metabolic activation: with S9, exposure time: 3-4 hours | 0.2 | 0.96 | 83.9
concentration: 13.7 (µM), S9 metabolic activation: without S9, exposure time: 24 hours | 0.54 | 2.12 | 120
concentration: 17.2 (µM), S9 metabolic activation: with S9, exposure time: 3-4 hours | 0.26 | 1.38 | 101
concentration: 17.2 (µM), S9 metabolic activation: without S9, exposure time: 24 hours | 0.74 | 1.8 | 95.4
concentration: 21.5 (µM), S9 metabolic activation: with S9, exposure time: 3-4 hours | 0.14 | 1.14 | 108
concentration: 21.5 (µM), S9 metabolic activation: without S9, exposure time: 24 hours | 0.7 | 1.8 | 93.8
concentration: 26.8 (µM), S9 metabolic activation: with S9, exposure time: 3-4 hours | 0.08 | 1.18 | 65.9
concentration: 26.8 (µM), S9 metabolic activation: without S9, exposure time: 24 hours | 0.98 | 3.22 | 115
concentration: 33.6 (µM), S9 metabolic activation: with S9, exposure time: 3-4 hours | 0.16 | 0.88 | 83.9
concentration: 33.6 (µM), S9 metabolic activation: without S9, exposure time: 24 hours | 19.6 | 2.74 | 76.8
concentration: 41.9 (µM), S9 metabolic activation: with S9, exposure time: 3-4 hours | 0.14 | 0.86 | 78.9
concentration: 41.9 (µM), S9 metabolic activation: without S9, exposure time: 24 hours | 1.2 | 1.18 | 108
concentration: 52.4 (µM), S9 metabolic activation: with S9, exposure time: 3-4 hours | 0.24 | 1.28 | 82.2
concentration: 52.4 (µM), S9 metabolic activation: without S9, exposure time: 24 hours | 1.02 | 1.78 | 132
concentration: 65.5 (µM), S9 metabolic activation: with S9, exposure time: 3-4 hours | 0.14 | 0.86 | 86.2
concentration: 65.5 (µM), S9 metabolic activation: without S9, exposure time: 24 hours | 1.54 | 1.72 | 98.5
concentration: 81.9 (µM), S9 metabolic activation: with S9, exposure time: 3-4 hours | 0.24 | 1.34 | 96.2
concentration: 81.9 (µM), S9 metabolic activation: without S9, exposure time: 24 hours | 1.02 | 1.92 | 141
concentration: 102 (µM), S9 metabolic activation: with S9, exposure time: 3-4 hours | 0.3 | 1.02 | 94.5
concentration: 102 (µM), S9 metabolic activation: without S9, exposure time: 24 hours | 1.08 | 2.12 | 135
concentration: 128 (µM), S9 metabolic activation: with S9, exposure time: 3-4 hours | 0.16 | 0.94 | 99.8
concentration: 128 (µM), S9 metabolic activation: without S9, exposure time: 24 hours | 1.14 | 1.74 | 121
concentration: 160 (µM), S9 metabolic activation: with S9, exposure time: 3-4 hours | 0.22 | 1.06 | 87.6
concentration: 160 (µM), S9 metabolic activation: without S9, exposure time: 24 hours | 1.06 | 2.24 | 85.6
concentration: 200 (µM), S9 metabolic activation: with S9, exposure time: 3-4 hours | 0.26 | 1.98 | 123
concentration: 200 (µM), S9 metabolic activation: without S9, exposure time: 24 hours | 1.64 | 2.38 | 74.3
